Measurements taken from paper PMC4336329 (PLoS ONE, 2015).
Out of some 310,000 compounds screened, about 14,000 (4.5%) showed an effect of 50% or more. Effects have a minus sign here. This is one part of the list.

molecular target: human ether-à-go-go-related gene (hERG) potassium channel (human, UniProt Q12809); assay: primary screen, population patch clamp on CHO cells stably expressing hERG
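Also: peak tail current of the secondary pulse compared with the same well before compound.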

Sequence of human ether-à-go-go-related gene (hERG) potassium channel (Q12809 whole entry, looked up): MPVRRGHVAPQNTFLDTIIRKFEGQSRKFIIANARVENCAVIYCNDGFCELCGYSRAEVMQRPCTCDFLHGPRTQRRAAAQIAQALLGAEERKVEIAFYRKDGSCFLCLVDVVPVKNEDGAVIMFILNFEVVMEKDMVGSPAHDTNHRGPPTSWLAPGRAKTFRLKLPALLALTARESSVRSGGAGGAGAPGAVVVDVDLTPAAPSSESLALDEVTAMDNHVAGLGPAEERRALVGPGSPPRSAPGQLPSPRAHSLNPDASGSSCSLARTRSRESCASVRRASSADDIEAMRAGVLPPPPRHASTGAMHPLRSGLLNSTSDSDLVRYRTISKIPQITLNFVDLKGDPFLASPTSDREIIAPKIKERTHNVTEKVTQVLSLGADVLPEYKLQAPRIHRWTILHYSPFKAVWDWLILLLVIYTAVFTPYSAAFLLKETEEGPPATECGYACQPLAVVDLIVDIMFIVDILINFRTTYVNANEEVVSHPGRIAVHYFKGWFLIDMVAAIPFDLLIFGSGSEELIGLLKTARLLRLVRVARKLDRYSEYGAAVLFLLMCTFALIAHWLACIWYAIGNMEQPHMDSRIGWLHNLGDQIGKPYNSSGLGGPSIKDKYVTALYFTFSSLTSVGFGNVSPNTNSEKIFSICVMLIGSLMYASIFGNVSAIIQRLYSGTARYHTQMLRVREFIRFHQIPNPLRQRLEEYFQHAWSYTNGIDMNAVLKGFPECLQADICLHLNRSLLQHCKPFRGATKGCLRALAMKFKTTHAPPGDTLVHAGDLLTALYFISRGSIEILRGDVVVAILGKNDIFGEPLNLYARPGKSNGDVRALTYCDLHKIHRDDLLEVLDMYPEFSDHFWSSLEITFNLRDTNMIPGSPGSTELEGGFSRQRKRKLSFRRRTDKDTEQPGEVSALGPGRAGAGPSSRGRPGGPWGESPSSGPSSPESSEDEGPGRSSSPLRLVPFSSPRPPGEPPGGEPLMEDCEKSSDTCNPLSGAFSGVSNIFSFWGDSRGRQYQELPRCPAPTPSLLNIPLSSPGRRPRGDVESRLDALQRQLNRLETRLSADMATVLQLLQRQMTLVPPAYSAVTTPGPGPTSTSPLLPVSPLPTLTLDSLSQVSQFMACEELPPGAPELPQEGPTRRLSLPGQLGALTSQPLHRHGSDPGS

Compound | hERG current change (%, negative = inhibition) at 10uM
O=S(=O)(Nc1nc2ccccc2nc1NCc1ccco1)c1cccs1 | 4.13%
COc1ccc(Br)cc1/C=N/NC(=O)c1cc(Br)ccc1O | 22.3%
COc1ccc(-n2c(Cc3cc(=O)[nH]c(=O)[nH]3)nnc2SCc2ccccc2)cc1 | -0.325%
CCN(CC(=O)Nc1ccc(NC(C)=O)cc1)C(=O)c1ccccc1Sc1ccccc1C#N | 23.1%
CC(C)(C)Nc1nc(Cl)nc(NC(C)(C)C)n1 | 5.16%
CCOC(=O)NC(=O)c1cn(Nc2ncc(Cl)cc2C(F)(F)F)c(=O)[nH]c1=O | 2.51%
CN(C)c1nc(-c2ccc([N+](=O)[O-])cc2)cs1 | -5.29%
COc1ccc(C(=O)N(c2ccccn2)C2CCCCC2)c(OC)c1 | 29.1%
C=CCn1c(C(C)NC(=O)C(C)(C)C)nc2ccccc21 (stereo not shown) | 10.7%
O=C(O)Cc1ccc2oc(-c3ccccn3)nc2c1 | 11.9%
CCOC(=O)c1nnn(-c2nonc2N)c1-c1ccc(C)cc1 | -3.94%
Cn1c(O)c(N=NC(=O)c2ccco2)c2ccccc21 | -2.82%
O=C(CSCc1ccc(Cl)cc1)Nc1ccccc1C(=O)N1CCOCC1 | -9.68%
CCOc1cc(/C=C2\SC(=S)N(C(C(=O)O)c3ccccc3)C2=O)ccc1O (stereo not shown) | 11.5%
COc1ccc(/C=C/C(=O)c2cc(Cl)cc(Cl)c2O)c(OC)c1 | 7.36%
CCCNC(=O)c1ccc2c(=O)n(Cc3ccco3)c(=S)[nH]c2c1 | 13.9%
O=C(c1ccc([N+](=O)[O-])cc1)N1CCSC1c1ccc(Cl)cc1 (stereo not shown) | -76.9%
CCOc1ccc(CCNC(=O)COC(=O)CNC(=O)c2ccc(Br)o2)cc1OCC | -40.6%
Cc1cccc(-n2c(-c3cccc([N+](=O)[O-])c3)nc3nc4ccccc4nc32)c1 | -21.7%
COc1ccc(S(=O)(=O)Nc2ccc(NC(C)=O)cc2)cc1OC | 11.2%
CCn1c(COc2ccc(Cl)c(C)c2)nnc1SCC(=O)N1CCCC1 | -18.5%
COc1ccc(C2CC(c3ccccc3)Nc3nc(NS(C)(=O)=O)nn32)cc1 (stereo not shown) | 7.1%

Compound | hERG current change (%, negative = inhibition) at 10uM
CN(C)CCn1c2c(c(SCC(=O)Nc3cccc4ccccc34)nc1=O)CCCC2 | -40.4%
CCN1C(=O)C(=C/C=C/c2ccco2)C(=O)N(CC)C1=S | -18.5%
COC(=O)c1ccccc1-c1ccc(C(c2c(C)[nH][nH]c2=O)c2c(C)[nH][nH]c2=O)o1 | 23.7%
O=S(=O)(c1ccccc1S(=O)(=O)N1CCCCC1)N1CCCCC1 | -4.41%
O=C(Nc1ccccn1)NC12CC3CC(CC(C3)C1)C2 | 3.77%
CC(NC(=O)C1CCN(C(=O)Nc2ccccc2)CC1)c1ccccc1Cl (stereo not shown) | 8.06%
COc1cccc(NC(=O)c2ccc(N3C(=O)C4CCC(C)CC4C3=O)cc2)c1 (stereo not shown) | -32.5%
CC(=O)c1ccc(N2CCN(C(=O)CN(C)S(=O)(=O)c3cnc[nH]3)CC2)cc1 | -0.0452%
Cc1nn(Cc2ccccc2)c(C)c1C(=O)NCc1ccccc1F | 2.15%
Cc1nnc(SCC(=O)NCc2ccc(Cl)cc2)[nH]c1=O | -2.82%
O=C(c1ccc(Cl)cc1)C1CCCN(Cc2ccc(Oc3ncccn3)cc2)C1 (stereo not shown) | -72.9%
CC1Oc2ccccc2N(CC(=O)N2CCCC2)C1=O (stereo not shown) | 14.1%
O=C(N=NC(=O)c1ccco1)c1ccc2c(O)n(N3C(=O)c4ccccc4C3=O)c(O)c2c1 | 14.9%
CC1CC(C)CN(CCCNC(=O)CN2C(=O)c3cccnc3Oc3ccc(Cl)cc32)C1 (stereo not shown) | -30.7%
CC(=O)CC(c1ccc([N+](=O)[O-])cc1)c1c(O)c2ccccc2oc1=O (stereo not shown) | 2.36%
CC(C)CC(NC(=O)/C(=C/c1ccco1)NC(=O)c1ccc(Br)o1)C(=O)O (stereo not shown) | 23.1%
N#CC1=C(N)Oc2cc(O)ccc2C1c1ccccc1 (stereo not shown) | 15.5%
O=C(C1CC1)N1CCC(Oc2cccc(C(=O)N3CCCCC3CCO)c2)CC1 (stereo not shown) | 16.6%
CCCN1CCC(NC(=O)c2cccc(Oc3ccccc3)c2)CC1 | -51.9%
CNc1cc(N2CCCCCC2)ccc1[N+](=O)[O-] | -27.8%
CCOC(=O)C1CCN(C(=O)/C(C)=C\c2ccccc2)CC1 | 3.07%
